Article PMC5434977 (Analytical chemistry, 2016)

Test system: Salmonella enterica MTAN
Conditions: substrate 2AMTA

2-amino-5′-methylthioadenosine [2AMTA]
Km: 8 ± 1.6 µM
kcat: 1.6 ± 0.18 s⁻¹
